The test system of the data set is ATP. Briefly: switch fluorescence ratio, 500 uM ATP over buffer (Cy3 cluster intensity, sum of 5 cycles each) (fold (ratio)); higher = stronger signal-on switching upon ATP binding; sequences stand for … in TCGTCGGCAGCGTCAGATGTGTATAAGAGACAGTTTTTTTTTTTTTTTTTTTTTTTTT…TC. The note with it: aptamer strand: ATP DNA aptamer (quencher-CACCTGGGGGAGTATTGCGGAGGAAGG + anchor), 100 nM annealed; ATP concentration: 500 uM; one replicate. An outline of the steps:
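Cy3-labelled switching-strand clusters on a modified Illumina MiSeq flow-cell were annealed to 100 nM quencher-labelled ATP aptamer, imaged in selection buffer, then imaged after 15 min with 500 uM ATP at 22 °C. Five buffer/ATP cycles ran, with NaOH stripping and re-annealing between them. The fluorescence ratio is summed target-cycle over summed buffer-cycle Cy3 intensity per cluster, averaged per switch-domain sequence. Clusters outside 100-1000 RFU were excluded.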

Sequences with one replicate were seen in a single cluster, so their values are uncertain.
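Also: ATP exposure 15 min at 22 °C before imaging.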

GTCATATGTA: the switch fluorescence ratio was 0.973. In the case of CGTTCGGTGT, the switch fluorescence ratio stood at 1.01.

In the case of TGCCAGGGCG, the switch fluorescence ratio was found to be 0.992. Turning to CAATCCTCGT, the switch fluorescence ratio is 0.973. In the case of CCATTTACG, the switch fluorescence ratio worked out at 1.03.

Regarding GGTCAAAACA, the switch fluorescence ratio was determined as 1.03. For TTGCGCATGT, the switch fluorescence ratio amounted to 1.07. On to AGTGTATAAG, for which the switch fluorescence ratio stood at 0.985.

In the case of CAATTTCATA, the switch fluorescence ratio is 1.02. For the sequence AGTACCGTA, the switch fluorescence ratio turned out to be 1.08.

As to GGATAGCGGG, the switch fluorescence ratio stood at 1.03. In the case of GGGAAGCTGC, the switch fluorescence ratio was found to be 1.01. As to CCGTACTATA, the switch fluorescence ratio was determined as 1.36. To TATAACATTA belongs 0.964; to TACCGGCCGT, 1.02. As to AACCGTTCGG, the switch fluorescence ratio was 0.942. As for AGGTGTAACT, the switch fluorescence ratio was found to be 1.01. Regarding GTGTCATGGC, the switch fluorescence ratio is 1.02. Under ATGCGGGTGT stands 1.01; under TGTGTTTCAC, 0.999. For TGATTGTCAC, the switch fluorescence ratio was determined as 1.01. On to CTAGCGTGTA, for which the switch fluorescence ratio was found to be 1.01. In the case of CCTTATGACT, the switch fluorescence ratio was found to be 0.992.

Take CCTCGGCCTG: the switch fluorescence ratio is 1.52. For TCAGTAGTTA, the switch fluorescence ratio was 1.02. In the case of TCTCAGTATG, the switch fluorescence ratio is 1.03. In the case of TTCCAGTCTT, the switch fluorescence ratio came to 1.14.

Consider CAGCTAAGTC, for which the switch fluorescence ratio worked out at 1.01. As to TAAATCCCTA, the switch fluorescence ratio stood at 1.

On to TTTGATTTCT, for which the switch fluorescence ratio worked out at 0.963. Under CACTTTTTAG stands 0.986; under TTCGGCGGAA, 1.03; under TGGAATAGTA, 1.03. Turning to CGCCGTGGCG, the switch fluorescence ratio worked out at 1.02. For the sequence CAGGCTTGGA, the switch fluorescence ratio was 0.959. As to ATAAGAGTA, the switch fluorescence ratio was found to be 0.979. As to TCCTGGTCGC, the switch fluorescence ratio worked out at 0.997. As for CGGTGCCGCA, the switch fluorescence ratio turned out to be 1.14.

With CAGAGCTTTG, the switch fluorescence ratio is 0.991. Under TAGGTGGTCA stands 0.985. Turning to CGTTAGCCGG, the switch fluorescence ratio is 1.03.

With ATTAACTTGA, the switch fluorescence ratio came to 1.07.

As for ACGCTCGTTG, the switch fluorescence ratio is 1.03.

As for TTGGATCGAT, the switch fluorescence ratio was 0.946.

GGTTGTGGTA: the switch fluorescence ratio was determined as 0.968. Take CCTCAGGTAC: the switch fluorescence ratio turned out to be 2.86. Regarding TGTGTGCAG, the switch fluorescence ratio turned out to be 1. For the sequence ACCGATTCTG, the switch fluorescence ratio was determined as 1.02.

With GACGTGGCCA, the switch fluorescence ratio is 1.03. To CTTGGTTCCC belongs 1.04. As for GTCATGGAGT, the switch fluorescence ratio is 0.954.

Take AGTGGGTTTG: the switch fluorescence ratio is 0.991. On to GCGTAGGAGC, for which the switch fluorescence ratio is 1.05. To GGTTAATGGG belongs 0.996; to CCGTTCTTA, 1.07; to AACGAACGGT, 1.1. In the case of CATCAACGAA, the switch fluorescence ratio worked out at 0.979. Consider TCGTTCGTGT, for which the switch fluorescence ratio was determined as 0.966. As to TAGCGGTCTG, the switch fluorescence ratio was 1. To CGGTGGAGTC belongs 0.992; to CCGTTGAGTA, 1.02. CCTAGGTGCT: the switch fluorescence ratio stood at 4.15. On to GTGCCCGGGC, for which the switch fluorescence ratio came out at 1.03. Turning to CGGGTTGGCG, the switch fluorescence ratio amounted to 0.943.

Consider TGACGGCTCG, for which the switch fluorescence ratio was 1.06. With GGCGCTCATT, the switch fluorescence ratio was 1.05. For TATTCGTGTG, the switch fluorescence ratio turned out to be 0.978. GCGGTAGAGT: the switch fluorescence ratio is 1.01.

For the sequence CCGCGAACTA, the switch fluorescence ratio was 4.45. As to ACTTAGTGGC, the switch fluorescence ratio came out at 1.06. As for AGACGTTGCC, the switch fluorescence ratio stood at 1.03.

For TACGGCTT, the switch fluorescence ratio came out at 1.07.

Take TAAACACTGC: the switch fluorescence ratio was 1.08. As to CCTCGTAACT, the switch fluorescence ratio worked out at 2.43. In the case of AGCCGGTGGT, the switch fluorescence ratio turned out to be 1.04. Turning to GGTCAAGGTC, the switch fluorescence ratio amounted to 1.02.

As to CGGGAGCAGA, the switch fluorescence ratio turned out to be 1.17.

With TCTTGACAAC, the switch fluorescence ratio stood at 1.01.

Consider CTGCTAGTCC, for which the switch fluorescence ratio was determined as 1.29. To TTTTCAATGG belongs 1.13; to CACTGGGCT, 0.941. Under GCGTGCCGGT stands 0.989. Turning to CGATCATGT, the switch fluorescence ratio was 0.969. Consider TCTTCATGTT, for which the switch fluorescence ratio came to 1.04. GGCCCTTAGG: the switch fluorescence ratio was 0.927. Take CAGGACAGGT: the switch fluorescence ratio amounted to 0.998. In the case of CACGAGTGCG, the switch fluorescence ratio was determined as 1.

Turning to AACGTAAGAG, the switch fluorescence ratio was 1.11. Take AGAAGGAGTG: the switch fluorescence ratio was 0.999. Under CAGGGGCCTG stands 1.04. Take GAATCGCCGG: the switch fluorescence ratio was 0.997. With TGAGGTGTG, the switch fluorescence ratio worked out at 0.971.

On to TGGTATCACG, for which the switch fluorescence ratio came to 0.971. Regarding GATTCTTTGT, the switch fluorescence ratio is 0.971. In the case of AAAGGGAATC, the switch fluorescence ratio was 1.02. With GTAAAAGGTG, the switch fluorescence ratio turned out to be 1.22. For TCTAACAAGA, the switch fluorescence ratio came to 1.03. Under TAGTATCTGT stands 0.97; under CGGTTGGAGA, 1; under GGTACAAGGC, 0.976.

Take CGATGCCCCC: the switch fluorescence ratio was found to be 1.21.

Turning to TCGGTTTTGG, the switch fluorescence ratio was determined as 0.993.

On to TGTGTGAGG, for which the switch fluorescence ratio was determined as 1.03. In the case of TGGTGGGCGT, the switch fluorescence ratio came out at 0.995. As to ATATCCGCTA, the switch fluorescence ratio was 4.24. As for TTGGGAGCAG, the switch fluorescence ratio was 1.03.

As for TGGTTTGCAT, the switch fluorescence ratio came out at 1.02. Consider TTACGGTTCC, for which the switch fluorescence ratio came to 1.06. To CTCAATAT belongs 1.2. Take GAATAACTAC: the switch fluorescence ratio was 1.05. For the sequence AGCTGTTAC, the switch fluorescence ratio came to 1.81. Regarding CGCACTCCAA, the switch fluorescence ratio stood at 3.3. ACTGTATCTA: the switch fluorescence ratio was 1.19. Regarding CCCATTTTTG, the switch fluorescence ratio came out at 1. Consider GAAGAAGAGG, for which the switch fluorescence ratio is 1.01. With ACATTCGGCG, the switch fluorescence ratio amounted to 1.04. Turning to AAAATCGCGC, the switch fluorescence ratio turned out to be 1.03. To TCAGGCTCTT belongs 1.08; to GTAGTTGAAC, 0.996; to GGCGCAGCCG, 0.951.

Values taken from the supplement of paper PMC10126150.
